The record followed here is ChEMBL document CHEMBL1201862, “PubChem BioAssay data set” (2004).

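Method: 48-hour compound exposure of cells in 96-well plates, five concentrations, linear interpolation of endpoints. GI50 is the concentration that inhibits growth by half.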 Calls of active or inactive are those of the source. Cut-off read from the data, not from the text of the source: active = GI50 up to about 1.1 µM and inactive = higher. Some results are limits rather than exact numbers.

This assay concerns NCI-H322M. Briefly: NCI anticancer screen, dose series, 48 h.
For the compound `C[C@H](CCC(=O)O)[C@H]1CC[C@H]2[C@@H]3[C@@H](O)C[C@@H]4C[C@H](O)CC[C@]4(C)[C@H]3C[C@H](O)[C@]12C`, the GI50 was inactive: > 100 µM.

In the case of `N=C1C=CC(=C(c2ccc(N)cc2)c2ccc(N)cc2)C=C1`, the GI50 is inactive: 3.57 µM.

With `O=C(NC1CCCCC1NC(c1ccccc1)(c1ccccc1)c1ccccc1)C(=O)NC1CCCCC1NC(c1ccccc1)(c1ccccc1)c1ccccc1` (stereo not drawn), the GI50 is inactive: > 100 µM.

For the compound `c1ccc2c(c1)nc1n2CCCn2ccnc2-1`, the GI50 was inactive: 92.5 µM.

In the case of `Oc1ccc(I)c2cccnc12`, the GI50 was inactive: 7.71 µM.

As for `C/C(=C\CO)CC/C=C(\C)CNc1ccc([N+](=O)[O-])cc1`, the GI50 was inactive: 1.55 µM.

Regarding `O=C1OCCC1C(O)C1c2ccccc2-c2ccccc21` (stereo not drawn), the GI50 was inactive: > 100 µM.

As for `CCc1ccccc1NC(=O)/C=C/c1ccccc1`, the GI50 is inactive: > 100 µM.

`CC(C)CC(NC=O)C(=O)NC(Cc1ccccc1)NC(=O)CNC(=O)C(C)NC(=O)C(N)Cc1ccc(O)cc1` (stereo not drawn): the GI50 was inactive: > 100 µM.

For the compound `CCCC(=O)Oc1ccc(/C=N/NC(N)=S)nc1`, the GI50 was inactive: > 100 µM.

With `Cc1ccccc1NC(=O)C(=O)CC(=O)C1CCOC1=O` (stereo not drawn), the GI50 is inactive: > 100 µM.

Turning to `COC1(CC[C@@H](C)COC2OC(CO)C(O)C(O)C2O)O[C@H]2C[C@H]3[C@@H]4CC=C5C[C@@H](OC6OC(CO)C(O)C(OC7OC(CO)C(O)C(O)C7O)C6OC6OC(C)C(O)C(O)C6O)CC[C@]5(C)[C@H]4CC[C@]3(C)[C@H]2[C@@H]1C` (stereo partly drawn), the GI50 is inactive: 4.29 µM.

In the case of `CCC(=O)Nc1ccc(/N=N/N(C)C)cc1`, the GI50 was inactive: > 100 µM.

For the compound `COC(C(=O)NN)c1ccccc1` (stereo not drawn), the GI50 is inactive: > 100 µM.

As for `c1ncc(C23C4C5C6C4C2C6C53)[nH]1` (stereo not drawn), the GI50 is inactive: > 100 µM.

Consider `CC(NC(=O)OC(C)(C)C)C(=O)NC(Cc1ccccc1)C(=O)NCC(=O)ON=C1CCCC1` (stereo not drawn), for which the GI50 is inactive: > 100 µM.

As to `CC1(n2nc(-c3ccccc3)n(-c3ccccc3)c2=O)CSC1`, the GI50 was inactive: > 100 µM.

`C=C1C(C)C2C(Cc3ccccc3)NC(=O)C23C(OC(C)=O)C=CC(C)(O)C(=O)C(C)C/C=C/C3C1O` (stereo not drawn): the GI50 was inactive: 58.3 µM.

On to `Cc1ccccc1Nc1nc(NNC(=O)Cc2ccccc2)nc(NNC(=O)c2ccncc2)n1`, for which the GI50 was inactive: > 10 µM.

Consider `c1ccc(OC2=NC3=S(S2)SC(Oc2ccccc2)=N3)cc1`, for which the GI50 is inactive: 18.9 µM.

On to `COC(=O)CC1NC(=O)[C@@H]1C(C)O` (stereo partly drawn), for which the GI50 is inactive: > 100 µM.

Consider `CC(N)C(=O)c1ccc(O)cc1` (stereo not drawn), for which the GI50 was inactive: > 100 µM.

In the case of `CCOP(=O)(OCC)C1CCCOC1=O` (stereo not drawn), the GI50 is inactive: > 100 µM.

In the case of `Cc1cc(C)c2c(c1)CC1(Cc3c(C)cc(C)cc3C1=O)C2=O` (stereo not drawn), the GI50 is inactive: > 100 µM.

Regarding `[O-][S+]1c2ccccc2N=C(c2ccc(Cl)cc2)CC1c1cccs1` (stereo not drawn), the GI50 is inactive: 29.7 µM.

For the compound `CCOC(=O)C(OP(=O)(OCC)OCC)C(F)(F)F` (stereo not drawn), the GI50 was inactive: > 100 µM.

As to `Cc1ccc(N(C(=O)CC(=O)NN)C(=O)c2ccccc2Cl)cc1`, the GI50 was inactive: > 100 µM.

As to `COP(=O)(CP(=O)(OC)OCCC(C)CCC=C(C)C)OC` (stereo not drawn), the GI50 was inactive: > 100 µM.

As for `CN(C)c1ccc(/C=C/C=C\c2cc(/C=C/C=C/c3ccc(N(C)C)cc3)[s+]c3ccccc23)cc1.[O-][Cl+3]([O-])([O-])[O-]`, the GI50 was inactive: > 100 µM.

`C=CC(c1ccccc1)C1(O)c2cccc(O)c2C(=O)c2c(O)cccc21` (stereo not drawn): the GI50 is inactive: 19.1 µM.

As for `CC(=O)CC1CCC(=O)CCC(=O)OC(CC(C)=O)CCC(=O)CCC(=O)O1` (stereo not drawn), the GI50 is inactive: > 100 µM.

Consider `O=C1C=CC(CC(=O)c2ccc3ccccc3c2)O1` (stereo not drawn), for which the GI50 is inactive: 17.7 µM.

Consider `C=CCc1cc(-c2cc(CC=C)c(O)c(CNC)c2)cc(CNC)c1O`, for which the GI50 is inactive: 17 µM.

On to `c1ccc(C2SCc3nc4ccccc4n32)cc1` (stereo not drawn), for which the GI50 is inactive: 71.1 µM.

`Cc1cc2c(cc1Cl)Sc1nnc(Nc3ccccc3)n1S2(=O)=O`: the GI50 is inactive: 19.7 µM.

Regarding `Cc1ccc(S(=O)(=O)OC2=C/C(=N\c3onc(C)c3C)c3ccccc3C2=O)cc1`, the GI50 was inactive: 45 µM.

In the case of `CCOC(=O)c1nc2ccc([N+](=O)[O-])cc2c2c1CCO2`, the GI50 was inactive: > 100 µM.

Take `Cc1nc2c(n1Cc1ccc(Cl)cc1)C(=O)c1ccccc1C2=O`: the GI50 is inactive: 14.3 µM.

Take `CC1(C)OC(=O)N(c2ccccc2)C12C=Cc1cccc([N+](=O)[O-])c1O2` (stereo not drawn): the GI50 was inactive: > 100 µM.

Turning to `CCOC(=O)c1sc(N)nc1N1CCCC1`, the GI50 is inactive: > 100 µM.

Regarding `CCCCCCCC(=O)NC(C)(C)C(=O)NCC(=O)NC(CC(C)C)C(=O)NC(C)(C)C(=O)NCC(=O)NCC(=O)NC(CC(C)C)C(=O)NC(C)(C)C(=O)NCC(=O)NC(C(=O)NC(CO)CC(C)C)C(C)CC` (stereo not drawn), the GI50 is inactive: 4.18 µM.

As for `COC(=O)c1c(C)cccc1/C=C1\Cc2cc(C)cc(C)c2C1=O`, the GI50 is inactive: 54.3 µM.

As for `Clc1ccc2c(NC3CCC(N4CCCCC4)CC3)ccnc2c1` (stereo not drawn), the GI50 was inactive: 20.4 µM.

For the compound `Cn1c(O)c(C(=O)Nc2cccs2)c(=O)[nH]c1=S`, the GI50 is inactive: 20.7 µM.

For the compound `CC#CC#C/C=C1/O[C@]2(CCC(OC(C)=O)CO2)[C@@H]2O[C@H]12` (stereo partly drawn), the GI50 is inactive: 33.3 µM.

Turning to `CNC(=S)/C(C#N)=C(\N)N1CCCC1`, the GI50 is inactive: > 100 µM.

For `Cn1c2c(c3ccccc31)CCN1C(=O)C3SC21C1C(=O)N(c2ccccc2)C(=O)C31` (stereo not drawn), the GI50 is inactive: > 100 µM.

In the case of `O=C1c2ccccc2-c2c1c(-c1ccc([N+](=O)[O-])cc1)nc1ccc3ccccc3c21`, the GI50 is inactive: > 100 µM.

Turning to `Cc1cc(NS(=O)(=O)c2ccc(NC(=O)c3ccc(Cl)c4c(Nc5ccc(S(=O)(=O)N=C(N)N)cc5)c5ccccc5nc34)cc2)no1`, the GI50 is inactive: 34.5 µM.

In the case of `CC(=O)Nc1ccccc1SCCSSCCSc1ccccc1NC(C)=O`, the GI50 is inactive: 58.2 µM.

Consider `CC(=O)Nc1ccc(/C=c2\sc3nnc(CCC(=O)Nc4ccccc4Cl)n3c2=O)cc1`, for which the GI50 is inactive: 57.1 µM.

Consider `COc1cc(O)c2c(=O)c3c(C)cccc3n(C)c2c1`, for which the GI50 was inactive: > 10 µM.

On to `CCCO/N=[N+](\[O-])N(CC)CC`, for which the GI50 was inactive: > 100 µM.

Regarding `C=C/C(C)=C\CC1[C@](C)(O)CC[C@H]2C(C)(C)C(=O)CC[C@]12C` (stereo partly drawn), the GI50 is inactive: > 100 µM.

For `CC1OC(OC2CC(O)(C(=O)CO)Cc3c(O)c4c(c(O)c32)C(=O)c2ccccc2C4=O)CC(N)C1O` (stereo not drawn), the GI50 is active: 0.0962 µM.

`Nc1ccc(C(=O)NN2C(=O)C(Cl)C2c2cccc(O)c2)cc1` (stereo not drawn): the GI50 is inactive: 16.1 µM.

Regarding `CCOC(=O)C1=C(O)C(=O)c2ccoc2C1=O`, the GI50 was inactive: > 100 µM.

Turning to `CC1(C2CCC3(C)C(C2)C3Sc2ccccc2)OCCO1` (stereo not drawn), the GI50 was inactive: 31.4 µM.

On to `CCN(CC)CCNc1ccc2ncn3c4ccccc4c(=O)c1c23`, for which the GI50 is inactive: 2.95 µM.

On to `N=C(N)N/N=C/c1nc2sccn2c1[N+](=O)[O-]`, for which the GI50 is inactive: 22.6 µM.

On to `COCc1cc2c(s1)C(=O)C1=C(C2=O)C2(C=C(Br)C(=O)C(Br)=C2)CCN1`, for which the GI50 is inactive: 12.8 µM.

Regarding `O=C(Cn1c2c(c3ccccc31)CCCC2)N1CCCCC1`, the GI50 was inactive: > 100 µM.

For `CSc1ncc2c(C#N)c3[nH]c4ccccc4n3c(=O)c2n1`, the GI50 was inactive: 16.4 µM.

Take `CCCCCCCCCCCCCCC(C)CCC(=O)O` (stereo not drawn): the GI50 was inactive: 82.2 µM.

As for `Cc1cc(C=O)c2c(=O)c3c(O)ccc(/C=C/C(C)C)c3oc2c1`, the GI50 is inactive: > 100 µM.

For `CN(/N=C/c1cccc2cccnc12)c1ccccc1`, the GI50 is inactive: > 100 µM.

As to `O=C(O)CNC(=O)c1cccc2c(=O)c3ccccc3[nH]c12`, the GI50 was inactive: > 100 µM.

Regarding `CN(CC#N)C(=O)Cc1ccc([N+](=O)[O-])cc1`, the GI50 was inactive: > 10 µM.

Regarding `N#CC12C3C4CC5C6C4C1C6C(O)(C53)N2Cc1ccccc1` (stereo not drawn), the GI50 was inactive: > 100 µM.

With `O=C(Cc1ccccc1)N/N=C(/c1nc2ccc([N+](=O)[O-])cc2nc1O)C(O)c1ccccc1Cl` (stereo not drawn), the GI50 was inactive: > 100 µM.

Turning to `CN(C)CCCNC(=O)N/N=C\c1cccc2ccccc12`, the GI50 was inactive: > 10 µM.

For `Cc1cn(CCCCOC(=O)NC(CCCNC(=N)N)C(=O)O)c(=O)[nH]c1=O` (stereo not drawn), the GI50 was inactive: > 100 µM.

Turning to `CC1=C(C(=O)Nc2ccc(Cl)c(Cl)c2)C(c2ccc([N+](=O)[O-])cc2)C(C(=O)Nc2ccc(Cl)c(Cl)c2)=C(C)N1`, the GI50 is inactive: 4.27 µM.

On to `N=C(NC(=N)Nc1ccc(S(=O)(=O)Nc2cnc3ccccc3n2)cc1)Nc1ccc(Br)cc1`, for which the GI50 was inactive: > 100 µM.

As to `O=C(O)CP(=O)(O)O`, the GI50 was inactive: > 100 µM.

On to `CCCCCCCCCCCCCCCCOCC(Cl)COP(=O)(O)OP(=O)(O)OCC1OC(n2cc(C)c(=O)[nH]c2=O)CC1O` (stereo not drawn), for which the GI50 was inactive: 85.9 µM.

As to `CC1OC(OC2C[C@](O)(C(=O)CF)Cc3c(O)c4c(c(O)c32)C(=O)c2ccccc2C4=O)CC(N)C1O` (stereo partly drawn), the GI50 is active: 0.255 µM.

`C=C[C@@]12CCCCC1C/C(=C(/O)OC)C(=O)C2` (stereo partly drawn): the GI50 is inactive: > 100 µM.

Take `O=C(O)CN(c1ccccc1)S(=O)(=O)c1cccc([N+](=O)[O-])c1`: the GI50 was inactive: > 100 µM.

Take `CN(C)CCC1(C2=CCCC2)CC/C(=C\c2ccccc2)C1=O` (stereo not drawn): the GI50 is inactive: 16.3 µM.

Consider `O=C(CCN1CCCC1)Nc1ccc2sc3ccccc3c(=O)c2n1`, for which the GI50 is inactive: 18.1 µM.

With `COc1ccc(N(CC(=O)O)S(=O)(=O)c2ccccc2)cc1`, the GI50 is inactive: > 100 µM.

With `COc1ccc2c(c1)c(=O)c1c(NCCN(C)C)ccc3nnn2c31`, the GI50 was inactive: 1.42 µM.
